# ± gives the standard deviation of the averaged measurements. The full ranking holds about 33,000 sequences; the median of “E-score (dimensionless, -0.5 to 0.5)” is about -0.049, and the highest 2% start at about 0.37. Some of the results follow.
# Test system: T1, PmTbr T-box DNA-binding domain (GST fusion)
# T1 sequence: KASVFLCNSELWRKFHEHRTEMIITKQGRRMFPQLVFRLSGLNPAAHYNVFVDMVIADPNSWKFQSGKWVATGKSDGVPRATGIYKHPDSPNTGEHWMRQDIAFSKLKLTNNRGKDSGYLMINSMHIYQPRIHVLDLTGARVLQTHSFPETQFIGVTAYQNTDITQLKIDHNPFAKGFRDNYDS
# Experiment: PBM E-score of 8-mer (E-score (dimensionless, -0.5 to 0.5)); Tbr is Tbrain of the sea star Patiria miniata (Pm) or the sea urchin Strongylocentrotus purpuratus (Sp); higher = stronger binding preference; most listed sequences are background and not binding sites
# Conditions: the construct has about 5 more residues each side
# Outline: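 Universal Agilent oligonucleotide arrays, made double-stranded by primer extension, were incubated with 200 nM GST-fused Tbr T-box DNA-binding domain in PBS (pH 7.5). The protein was expressed in BL21 E. coli at 20 °C and purified by glutathione affinity chromatography. After scanning and quantification, the Universal PBM Analysis Suite assigned an enrichment E-score to each ungapped 8-mer, averaged over duplicate arrays.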
row,Sequence,PBM E-score of 8-mer
1,CCTCAGAG,0.0428 ± 0.073
2,TACGCGCA,0.0284 ± 0.0022
3,ACGACAGT,0.118 ± 0.015
4,AATACTCA,-0.0996 ± 0.0042
5,GTCCCAGA,-0.298 ± 0.061
6,AGTCTGGC,-0.247 ± 0.019
7,CGAACATC,-0.0434 ± 0.053
8,CTCACGAC,0.115 ± 0.021
9,AAGGCTGG,-0.0845 ± 0.064
10,CCCAAAAG,-0.144 ± 0.081
11,AGTGGAGA,-0.21 ± 0.015
12,ATAGGGGG,-0.0469 ± 0.086
13,ATAGTGGC,0.12 ± 0.015
14,AAGGAACG,-0.138 ± 0.034
15,ATCATACG,-0.0663 ± 0.028
16,AGCCGCCG,-0.0524 ± 0.0007
17,ATACTGAA,-0.116 ± 0.013
18,AACACCTG,0.472 ± 0.0011
19,CATACTGG,-0.129 ± 0.076
20,GTTCTGTA,-0.0395 ± 0.03
21,ATACGAGC,-0.0466 ± 0.092
22,AGAACATA,0.0163 ± 0.016
23,ACTTCAGG,0.174 ± 0.048
24,CAACGCCA,0.0666 ± 0.048
25,TTCCCAAA,-0.216 ± 0.062

row,Sequence,PBM E-score of 8-mer
1,CATGCTGA,-0.062 ± 0.12
2,GCCCTATA,-0.193 ± 0.047
3,ATCCGGCC,-0.199 ± 0.013
4,CTTGACAC,0.43 ± 0.023
5,ACGTGCGC,0.0305 ± 0.051
6,TAAAAAGA,-0.101 ± 0.067
7,ACGACGAC,0.142 ± 0.049
8,ATGTGTAA,0.33 ± 0.043
9,CAGTGCGC,-0.0646 ± 0.032
10,GAACATCA,-0.0555 ± 0.02
11,GCTCGTCC,-0.364 ± 0.02
12,AGGCTATG,-0.404 ± 0.014
13,GAGTTAAC,0.155 ± 0.042
14,CCAGGCGC,0.226 ± 0.003
15,CGTGATTA,0.192 ± 0.047
16,CTGGAACC,-0.178 ± 0.014
17,AACCAGCT,0.109 ± 0.029
18,AGTCAGAT,-0.157 ± 0.071
19,CTTAACGC,0.215 ± 0.031
20,ACCCCAGG,-0.0633 ± 0.019
21,CGTTGACC,0.0227 ± 0.075
22,CCAATGGA,-0.188 ± 0.025
23,CAGCTGGC,0.0865 ± 0.00029
24,GAAGCATC,-0.0985 ± 0.021
25,AACTGTTC,-0.036 ± 0.022

row,Sequence,PBM E-score of 8-mer
1,ACGCGCAG,-0.0633 ± 0.036
2,GAAATCGC,0.281 ± 0.031
3,CCCCCTAG,-0.211 ± 0.016
4,GATACCCC,-0.3201 ± 0.0032
5,ACTCATCT,-0.112 ± 0.0092
6,CAATTCGG,-0.0579 ± 0.0054
7,CTGGAGAA,-0.077 ± 0.026
8,AATCCAGC,-0.0472 ± 0.0098
9,CCACACTA,0.248 ± 0.017
10,CCTATGTC,-0.0631 ± 0.04
11,AGCCCCAA,0.038 ± 0.089
12,CTGAATAC,-0.0727 ± 0.016
13,TCATGCAA,-0.15 ± 0.025
14,AAGTCGAT,0.091 ± 0.047
15,CAGAAAAG,0.108 ± 0.0083
16,AAATCTCC,-0.209 ± 0.014
17,CAGATAGG,0.0267 ± 0.037
18,AGCGATAC,0.0833 ± 0.021
19,AACTCACT,0.0854 ± 0.063
20,CGGCTAGC,0.119 ± 0.04
21,TCCCCGCA,-0.0149 ± 0.032
22,AGTCTTGG,-0.135 ± 0.073
23,CATTGGCA,0.167 ± 0.014
24,GGCCAAAC,-0.133 ± 0.011
25,CACATCGA,0.179 ± 0.075

row,Sequence,PBM E-score of 8-mer
1,AAGAACAT,-0.0827 ± 0.014
2,CAAAGTTG,0.113 ± 0.0087
3,GTCCGAGA,-0.113 ± 0.019
4,AAGGGGAT,0.0423 ± 0.043
5,ATATTCGC,0.186 ± 0.084
6,AATAGTCG,-0.0927 ± 0.035
7,GCGAGCCC,-0.131 ± 0.048
8,CGGTAACA,0.218 ± 0.028
9,CCTAGATA,-0.21 ± 0.035
10,GCCCGTGA,0.0152 ± 0.0011
11,AAGAGGCG,0.198 ± 0.011
12,AGAGCCAC,-0.0799 ± 0.014
13,AAGCACTT,0.0628 ± 0.008
14,CTGTAGGA,-0.135 ± 0.004
15,CGTGACCA,0.259 ± 0.018
16,GCCTAGCC,-0.0797 ± 0.0045
17,AGCTCATA,-0.0174 ± 0.0027
18,AGCATTGA,-0.229 ± 0.054
19,TTCGTAAA,-0.0367 ± 0.1
20,AGGGAGCA,0.0515 ± 0.038
21,ACACAACT,0.193 ± 0.037
22,AGTGCGCG,0.0675 ± 0.052
23,GTGATCAA,-0.00274 ± 0.14
24,ATGTTACC,-0.095 ± 0.036
25,CTAATGAG,-0.182 ± 0.13

row,Sequence,PBM E-score of 8-mer
1,CCGCACGA,-0.159 ± 0.021
2,ATAGCACG,0.358 ± 0.017
3,AAGGTATT,0.0819 ± 0.0091
4,CCCATGAC,-0.198 ± 0.031
5,CAATAGTC,-0.0141 ± 0.069
6,AAAACGTT,-0.2 ± 0.15
7,ACCGGATA,-0.173 ± 0.037
8,CCTCAAGC,-0.144 ± 0.04
9,GTGGACTA,-0.304 ± 0.075
10,GGCAGGCA,-0.2094 ± 0.00052
11,CAAATAAA,-0.148 ± 0.064
12,GTGCGGGA,0.0797 ± 0.032
13,ACGCGCCT,0.166 ± 0.015
14,AAGCGGTG,-0.194 ± 0.025
15,AACGGCTG,-0.0677 ± 0.049
16,AAATTGGC,0.114 ± 0.084
17,CCATACAC,-0.0531 ± 0.052
18,AAGCCACG,-0.088 ± 0.034
19,AGCGCGAG,0.319 ± 0.011
20,TAATCCGA,-0.115 ± 0.026
21,CTTAAAAG,-0.0997 ± 0.013
22,CGAGATAG,-0.0663 ± 0.037
23,ATTCGCAG,0.297 ± 0.024
24,ACAAGGAG,0.00398 ± 0.033
25,AAGTTAGA,-0.161 ± 0.01

row,Sequence,PBM E-score of 8-mer
1,ACAAGATG,-0.0867 ± 0.013
2,ACTATCTG,0.166 ± 0.011
3,AAGTGCAT,-0.0955 ± 0.069
4,CCCTCCAA,-0.0346 ± 0.0069
5,AGGCTCAT,-0.211 ± 0.075
6,ACCAGAAA,0.107 ± 0.028
7,TCGAAGAA,-0.287 ± 0.066
8,ACAGAAAT,-0.0955 ± 0.039
9,ACCTGTAA,0.139 ± 0.013
10,CCCAGTAA,-0.156 ± 0.067
11,GCGTTAAC,0.275 ± 0.056
12,CTTTATGC,-0.264 ± 0.027
13,ACATCGAG,-0.0166 ± 0.019
14,TTGTAAAA,-0.0584 ± 0.093
15,CGGGAGGC,0.131 ± 0.036
16,ATTGGATC,-0.119 ± 0.047
17,TGGTACAA,-0.0661 ± 0.01
18,ACTAATCC,-0.0993 ± 0.04
19,GCCTGCCC,-0.146 ± 0.055
20,TATTATGA,0.167 ± 0.06
21,CTGAGTTA,-0.167 ± 0.042
22,AACCGCGG,0.0351 ± 0.0077
23,AAGCGCCT,-0.133 ± 0.04
24,GAGGGCCC,-0.157 ± 0.12
25,CACTTTGA,0.3 ± 0.017

row,Sequence,PBM E-score of 8-mer
1,TAGGCATA,-0.104 ± 0.016
2,GCATTGGC,-0.126 ± 0.079
3,CGAATTTA,-0.0207 ± 0.021
4,GCAATGTA,-0.0933 ± 0.013
5,ACCCCTGC,0.00693 ± 0.082
6,AGCCAACA,0.0222 ± 0.082
7,AGAGCGAT,-0.0395 ± 0.054
8,ATCTCAGG,-0.0248 ± 0.056
9,AGGGTGGG,-0.0208 ± 0.038
10,ACGCGTGC,0.14 ± 0.034
11,ACCAAAGC,-0.0779 ± 0.099
12,ATGATTTG,-0.0586 ± 0.019
13,CATGTTAG,0.0379 ± 0.005
14,AGCCGGCA,0.0199 ± 0.059
15,GCACGTCA,0.299 ± 0.0076
16,CCTACAAC,0.148 ± 0.04
17,ATCACGTA,0.0652 ± 0.046
18,GCCACACC,0.394 ± 0.024
19,ATTTGTAG,-0.152 ± 0.021
20,TAGAGATA,-0.0296 ± 0.007
21,CCGACGTC,-0.158 ± 0.025
22,CTGGGCAC,-0.0642 ± 0.056
